Experimental data reported in PubChem BioAssay AID894 (National Center for Advancing Translational Sciences (NCATS), 2007).
The campaign covered roughly 150,000 compounds. About 6,500 (4.3%) were called active. The inconclusive results got no clear call from the source; some entries with a clear call stand among them for comparison. Calls follow the shape of the dose curve; as a rule, active = well fitted inhibition curve with a large enough effect (not every such curve was filed as active); inconclusive = small, poorly fitted or top-dose-only effect, or another doubt; inactive = no such curve, though single readings can be large or run the other way. Potencies of inconclusive entries are left out as doubtful fits.

Target: 15-hydroxyprostaglandin dehydrogenase [NAD(+)] (Homo sapiens) (UniProt P15428)
Experiment: qHTS Assay for Inhibitors of HPGD (15-Hydroxyprostaglandin Dehydrogenase)
Details: purified HPGD, NADH fluorescence kinetic, PGE2 substrate; activity change, negative = inhibition: stronger effect = lower value
In short: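 NADH formation kinetics: reaction with 30 uM PGE2 and 1 mM NAD+ (final), 20 nM enzyme, Tris-HCl pH 8 with Tween 20, after 15 min compound preincubation at room temperature. Fluorescence change, last versus first of five reads.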
% is scaled to controls: 0 for no effect and ±100 for the full control effect; potency is read from the fitted curve at half-maximal effect; tags tell the direction and shape of the fitted curve.

Sequence of UniProt P15428 (P15428 whole entry, looked up): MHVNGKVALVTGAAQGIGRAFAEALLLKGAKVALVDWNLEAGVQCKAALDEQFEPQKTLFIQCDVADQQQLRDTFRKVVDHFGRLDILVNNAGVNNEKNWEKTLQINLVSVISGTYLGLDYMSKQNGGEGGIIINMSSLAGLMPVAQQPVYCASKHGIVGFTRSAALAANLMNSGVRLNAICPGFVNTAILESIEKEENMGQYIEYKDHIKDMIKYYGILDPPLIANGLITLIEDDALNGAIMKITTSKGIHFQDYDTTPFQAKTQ

| Compound | Potency | activity change, negative = inhibition |
| --- | --- | --- |
| Cc1cccn2c(NCC3CCCO3)c(C(C)C)nc12 (stereo unspecified) | inconclusive [inhibitor, partial curve] | – |
| O=C(Cc1ccccc1)N1CCN(Cc2c[nH]c3ccccc23)CC1 | – | inactive: -8.9% |
| Clc1ccccc1 | – | inactive: -8.83% |
| Cc1c(N=Cc2c(O)n(CCc3ccc(F)cc3)c(=O)[nH]c2=O)c(=O)n(-c2ccccc2)n1C | inconclusive [inhibitor, single point] | – |
| Cc1cc2c(s1)NC(=O)CN=C2c1cccs1 | active: 25.1 µM | – |
| O=[N+]([O-])c1ccc(-c2ccc(C=Nc3cccc4ccccc34)o2)cc1 | inconclusive [inhibitor, partial curve] | – |
| CCCCNC(=O)c1c(N)n(CCCOC)c2nc3ccccc3nc12 | inconclusive [inhibitor, partial curve] | – |
| O=C(c1sc2ccccc2c1Cl)N1CCC2(CC1)OCCO2 | active: 14.1 µM | – |
| Cc1cccc(NC(=O)CSc2ccc(-c3ccco3)nn2)c1 | inconclusive [inhibitor, partial curve] | – |
| Oc1ccc(/C=N/NP(=S)(c2ccccc2)c2ccccc2)c(O)c1O | active: 22.4 µM | – |
| C=CCOC(=O)C1=C(C)OC(N)=C(C(=O)OCC)C12C(=O)N(CC(N)=O)c1ccccc12 (stereo unspecified) | – | inactive: -11.1% |
| COc1ccc(CCNc2oc(-c3ccc(OC)c(OC)c3)nc2P(=O)(OC)OC)cc1OC | inconclusive [inhibitor, partial curve] | – |
| O=C(O)[C@H]1C2c3ccccc3C(c3ccccc32)[C@@H]1C(=O)NCC1CC1 | – | inactive: -6.42% |
| Cc1nc2ccc(Nc3nc4cc(S(=O)(=O)N5CCOCC5)ccc4o3)cc2s1 | active: 8.91 µM | – |
| COc1ccc(/C=C2/C(=O)NC(=O)N(c3ccc(C)c(C)c3)C2=O)cc1CN1C(=O)c2ccccc2C1=O | active: 10 µM | – |
| CC1(C)C(=O)C=C[C@]2(C)[C@H]3CC[C@@]4(C)[C@H](c5ccoc5)OC(=O)[C@H]5O[C@]54[C@]3(C)[C@H](O)C[C@@H]12 | – | inactive: -15.7% |
| Cc1oc2ccc(OC(=O)N(C)C)cc2c1C(=O)OC(C)C | – | inactive: -9.35% |
| CN1CCN(c2ccc([N+](=O)[O-])c(NCc3ccco3)c2)CC1 | – | inactive: -19.1% |
| Clc1ccccc1Cl | – | inactive: -3.1% |
| Cc1nn(Cc2ccccc2)c(C)c1C=C1C(=O)NC(=O)NC1=O | inconclusive [inhibitor, single point] | – |
| NC(=O)c1ccc(OCC(O)CN2CC=C(c3ccc(F)cc3)CC2)cc1 (stereo unspecified) | – | inactive: -8.45% |
| Cc1cccc(C2=NCC(=O)N(CC(=O)NCc3ccco3)c3sc4c(c32)CCCC4)c1 | active: 28.2 µM | – |
| Nc1ccc([N+](=O)[O-])cc1N | – | inactive: -3.04% |
| Cc1ccc(N2C(=O)/C(=C/c3ccc(CN(CCC#N)S(C)(=O)=O)o3)C(=O)NC2=S)cc1C | active: 14.1 µM | – |
| CCOC(=O)c1c(-n2c(C)cc(C=C3C(=O)NC(=S)NC3=O)c2C)sc2c1CCCC2 | active: 3.55 µM | – |
| CC(=NCc1cccnc1)c1c(O)n(Cc2ccccc2)c(=O)[nH]c1=O | active: 28.2 µM | – |

| Compound | Potency | activity change, negative = inhibition |
| --- | --- | --- |
| COc1ccc(Cn2c(O)c(/C=N/NC(=O)c3ccccc3)c(=O)[nH]c2=O)cc1 | inconclusive [inhibitor, partial curve] | – |
| CCCCn1c(=O)c(C(=O)Nc2ccsc2C(=O)OC)c(O)c2ccccc21 | inconclusive [inhibitor, partial curve] | – |
| CC(CO)NC(=O)C1C=C2c3cccc4[nH]cc(c34)C[C@H]2N(C)C1 (stereo partly specified) | inconclusive [inhibitor, partial curve] | – |
| c1ccc(Nc2ccc3ccccc3c2)cc1 | inconclusive [inhibitor, partial curve] | – |
| NC(=O)CN1CC(O)CC1=O (stereo unspecified) | – | inactive: 4.33% |
| O=P(Nc1ccccc1)(Nc1ccccc1)Oc1ccc(Cl)cc1 | active: 5.62 µM | – |
| Oc1cc(Cl)c(Cl)c(Cl)c1Cl | inconclusive [inhibitor, partial curve] | – |
| CCOC(=O)CSc1ncnc2c1cnn2-c1ccccc1 | inconclusive [inhibitor, single point] | – |
| C=CCN(c1ccc(C(=O)N(CC)CC)cc1)S(C)(=O)=O | – | inactive: -21.5% |
| O=C(c1ccc2nc(-c3ccco3)c(-c3ccco3)nc2c1)N1CCC2(CC1)OCCO2 | inconclusive [inhibitor, partial curve] | – |
| COc1cc2c(cc1OC)-c1c(OC)c(OC)c(CO)c3c1C(C2)N(C)CC3 (stereo unspecified) | inconclusive [inhibitor, partial curve] | – |
| COP(=O)(OC)c1nc(-c2cccc3ccccc23)oc1NCCc1ccccc1 | inconclusive [inhibitor, partial curve] | – |
| Cc1nc2ccccc2c(=O)n1-c1cccc(O)c1 | – | inactive: 6.86% |
| CCCCC(=O)N/N=C/c1c(O)n(CC)c(=S)[nH]c1=O | – | inactive: -6.27% |
| CC(C)[C@@]1(NC(=O)[C@@H]2C[C@@H]3c4cccc5[nH]cc(c45)C[C@H]3N(C)C2)O[C@@]2(O)C3CCCN3C(=O)[C@H](Cc3ccccc3)N2C1=O (stereo partly specified) | – | inactive: -21.6% |
| COc1cc(C=C(C#N)C#N)cc(O)c1O | active: 31.6 µM | – |
| CSc1ncc(/C=C2/C(=O)NC(=O)N(C3CCCCC3)C2=O)cn1 | inconclusive [inhibitor, single point] | – |
| N#CCCCC[N+]12CN3CN(CN(C3)C1)C2 | – | inactive: 0.553% |
| O=Cc1cn(CCCOc2ccccc2)c2ccccc12 | inconclusive [inhibitor, partial curve] | – |
| NS(=O)(=O)c1ccc(N=Cc2c(O)n(C3CCCCC3)c(=O)n(C3CCCCC3)c2=O)cc1 | inconclusive [inhibitor, single point] | – |
| Cc1cccc(N2C(=O)NC(=O)/C(=C/c3ccc([N+](=O)[O-])o3)C2=O)c1 | active: 12.6 µM | – |
| c1ccc2c(c1)-c1cccc3c1c-2cc1ccccc13 | inconclusive [inhibitor, partial curve] | – |
| Cc1cc(C)cc(N2C(=O)NC(=O)/C(=C\c3cccn3-c3ccccc3)C2=O)c1 | active: 7.08 µM | – |
| O=C1CCCc2c1nc(-c1ccccc1)n2O | inconclusive [inhibitor, partial curve] | – |
| COc1ccccc1CN1CCCC2(CCN(C(=O)Oc3ccccc3)CC2)C1 | – | inactive: -5.06% |
| O=C1c2ccccc2C(=O)N1SC1CCCCC1 | active: 2.24 µM | – |

| Compound | Potency | activity change, negative = inhibition |
| --- | --- | --- |
| O=C(CSc1ncnc2c1nnn2-c1ccc(F)cc1)NCC1CCCO1 (stereo unspecified) | inconclusive [inhibitor, single point] | – |
| Cc1ccc(N2C(=O)NC(=O)/C(=C\C=C\c3ccco3)C2=O)cc1C | active: 10 µM | – |
| CCOC(=O)c1c(C)c(P(=S)(N2CCOCC2)N2CCOCC2)n(C)c1C | active: 25.1 µM | – |
| Cc1ccccc1N1C(=O)NC(=O)/C(=C\c2cnn(-c3ccccc3)c2)C1=O | active: 10 µM | – |
| CC(=NCc1ccco1)c1c(O)n(-c2ccccc2)c(=O)[nH]c1=O | – | inactive: -14.3% |
| Nc1c(C(=O)NCCCc2ccccc2)c2nc3ccccc3nc2n1Cc1cccs1 | inconclusive [inhibitor, partial curve] | – |
| N#Cc1ccc(CN2CC3(CCNCC3)C2)cc1 | – | inactive: -3.53% |
| COc1ccc(Cn2c(N)c(C(=O)NCc3ccco3)c3nc4ccccc4nc32)cc1 | inconclusive [inhibitor, partial curve] | – |
| [CH3][Hg][Cl] | inconclusive [inhibitor, single point] | – |
| CC(C)CCNC(=O)c1c(N)n(CC2CCCO2)c2nc3ccccc3nc12 (stereo unspecified) | inconclusive [inhibitor, partial curve] | – |
| Cc1ccc(N)c(C(=O)c2ccccc2)c1 | – | inactive: -13.4% |
| Cc1nc2cc(C(=O)N3CCC4(CC3)OCCO4)ccc2n1-c1cccc(F)c1 | active: 2.82 µM | – |
| CCCCCCn1c(O)c(C=NCCN2CCOCC2)c(=O)[nH]c1=O | – | inactive: -6.01% |
| Cc1cc(/C=C2\C(=O)NC(=O)N(C)C2=O)c(C)n1-c1ccc2c(c1)OCO2 | – | inactive: -19.7% |
| CC(C)(C)OC(=O)c1c(N)n(Cc2ccco2)c2nc3ccccc3nc12 | inconclusive [inhibitor, partial curve] | – |
| CCC(C)n1c(O)c(C(c2ccccn2)c2c(O)n(C(C)CC)c(=S)[nH]c2=O)c(=O)[nH]c1=S (stereo unspecified) | active: 31.6 µM | – |
| O=[N+]([O-])c1cc(C(F)(F)F)cc([N+](=O)[O-])c1Cl | inconclusive [inhibitor, partial curve] | – |
| C#CCO | – | inactive: -1.93% |
| CC[C@@H](CO)NC(=O)[C@H]1C=C2c3cccc4[nH]cc(c34)C[C@H]2N(C)C1 | inconclusive [inhibitor, partial curve] | – |
| C=CCN1CCc2cccc3c2C1Cc1ccc(O)c(O)c1-3 (stereo unspecified) | inconclusive [inhibitor, full curve] | – |
| COc1cc(Cn2c(N)c(C(=O)NCc3ccco3)c3nc4ccccc4nc32)cc(OC)c1OC | inconclusive [inhibitor, partial curve] | – |
| CCN(CC)c1ccc(NC(=O)c2cccc(C)c2)cc1S(=O)(=O)Nc1ccccc1OC | active: 12.6 µM | – |
| COc1cc(N2CCOCC2)ccc1C=C1C(=O)NC(=O)NC1=O | active: 31.6 µM | – |
| COC(=O)[C@]1(C)CC[C@@]2(C)CC[C@@]3(C)C4=CCc5c(cc(O)c(O)c5C)[C@]4(C)CC[C@@]3(C)C2C1 (stereo partly specified) | active: 28.2 µM | – |
